# Assay results as given in the supplement of paper PMC9446081.
# In all, about 39,000 compounds went through this assay and about 220 (0.56%) showed activity. Some of the results follow.
# System: Escherichia coli K-12 BW25113
# Experiment: relative growth (OD600 normalised to plate interquartile mean) (fraction); higher = less growth inhibition, active = 0.2 or less
# Conditions: 50 µM; LB; incubation time: overnight (16-24 h)
# 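Also: static incubation at 37 °C against the wild-type strain, values averaged over two biological replicates.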
row,SMILES,relative growth
1,C[C@H](CO)N1C[C@H](C)[C@@H](CN(C)C(=O)c2ccc(F)cc2)Oc2cc(Br)ccc2S1(=O)=O,inactive: 1.01
2,Cc1noc(C)c1NC(=O)Nc1cccc2c1O[C@H](CN(C)Cc1ccc(C(=O)Nc3ccccc3N)cc1)[C@H](C)CN([C@H](C)CO)C2=O,inactive: 0.991
3,C[C@H]1CN([C@@H](C)CO)C(=O)c2cc(NC(=O)Nc3ccc(F)cc3)ccc2O[C@H]1CN(C)Cc1ccc(C(F)(F)F)cc1,inactive: 0.973
4,C[C@H](CO)N1C[C@H](C)[C@@H](CN(C)C(=O)Nc2ccccc2)Oc2ccc(NS(=O)(=O)c3cn(C)cn3)cc2CC1=O,inactive: 0.987
5,COc1ccc(NC(=O)Nc2ccc3c(c2)C(=O)N([C@H](C)CO)C[C@H](C)[C@@H](CN(C)C(=O)CCC(F)(F)F)OCCCC[C@H](C)O3)cc1,inactive: 1.01
6,Cc1noc(C)c1NC(=O)Nc1ccc2c(c1)C(=O)N([C@@H](C)CO)C[C@@H](C)[C@@H](CN(C)S(=O)(=O)c1ccc(Cl)cc1)OCCCC[C@@H](C)O2,inactive: 0.988
7,C[C@H]1CCCN(C(=O)N2c3ccccc3Sc3ccccc32)C1,inactive: 1.01
8,CC(C)NC(=O)N(C)C[C@@H]1Oc2cc(-c3ccccc3F)ccc2S(=O)(=O)N([C@@H](C)CO)C[C@@H]1C,inactive: 0.987
9,C[C@@H]1CN([C@@H](C)CO)C(=O)Cc2cc(NC(=O)Cn3cnnn3)ccc2O[C@@H]1CN(C)Cc1ccc(Oc2ccccc2)cc1,inactive: 1.01
10,O=C1O[C@@H](c2ccccc2)[C@@H](c2ccccc2)N2[C@@H](c3ccc(O)cc3)[C@]3(C(=O)Nc4ccc(C#CC5=CCCCC5)cc43)[C@@H](C(=O)NC[C@H](O)c3ccccc3)[C@H]12,inactive: 1
11,C[C@H](CO)N1C[C@H](C)[C@H](CN(C)C(=O)Nc2ccc3c(c2)OCO3)Oc2ccc(NS(=O)(=O)c3cn(C)cn3)cc2C1=O,inactive: 1
12,C[C@@H]1CN([C@@H](C)CO)C(=O)c2cccc(NS(C)(=O)=O)c2O[C@H]1CN(C)Cc1ccc(C(=O)O)cc1,inactive: 0.996
13,C[C@@H]1CCCCO[C@@H](CN(C)S(=O)(=O)c2ccccc2)[C@H](C)CN([C@@H](C)CO)C(=O)c2cc(NC(=O)Nc3ccc(F)cc3)ccc2O1,inactive: 1.01
14,C[C@@H]1CN([C@H](C)CO)C(=O)c2cccc(NS(=O)(=O)c3ccc(F)cc3)c2O[C@H]1CN(C)C(=O)Nc1cccc2ccccc12,inactive: 0.999
15,COc1ccc(NC(=O)Nc2cccc3c2O[C@@H](CN(C)CC2CCCCC2)[C@H](C)CN([C@H](C)CO)C3=O)cc1,inactive: 1
16,O=C(C[C@@H]1C[C@@H]2c3cc(NC(=O)Nc4ccc(C(F)(F)F)cc4)ccc3O[C@@H]2[C@H](CO)O1)NCc1cc(F)ccc1F,inactive: 0.982
17,C[C@H](CO)N1C[C@H](C)[C@@H](CN(C)CC2CCCCC2)OCCCC[C@H](C)Oc2ccc(NC(=O)c3ccncc3)cc2C1=O,inactive: 1
18,CO[C@@H](CN(C)C(=O)c1ccc2c(c1)OCO2)[C@@H](C)CN([C@@H](C)CO)S(=O)(=O)c1ccc(C)cc1,inactive: 0.935
19,C[C@H]1CN([C@@H](C)CO)C(=O)Cc2cc(NC(=O)C3CC3)ccc2O[C@@H]1CN(C)S(=O)(=O)c1cccs1,inactive: 0.97

row,SMILES,relative growth
1,COc1ccc2c3c(n(c2c1)C)[C@@H](CO)N(Cc1cc(cc(c1)OC)OC)C[C@]13CN(C1)S(=O)(=O)c1cn(cn1)C,inactive: 1.01
2,COc1ccc(S(=O)(=O)N(C)C[C@@H]2Oc3ccc(NC(=O)c4ccncc4)cc3CC(=O)N([C@H](C)CO)C[C@H]2C)cc1,inactive: 0.999
3,O=C(CN1CCOCC1)N[C@H]1CC[C@H](CCNC(=O)C2CCCCC2)O[C@@H]1CO,inactive: 0.988
4,CN1C(=O)c2cc(NC(=O)C3CCCC3)ccc2OC[C@@H]2O[C@H](CC(=O)NCCc3ccncc3)CC[C@@H]21,inactive: 0.991
5,COc1ccc(S(=O)(=O)Nc2ccc3c(c2)CC(=O)N([C@@H](C)CO)C[C@H](C)[C@@H](CN(C)S(=O)(=O)c2ccc(C)cc2)O3)cc1,inactive: 1
6,CC(C=CC=C(C)C=CC(=O)C1(C)CC(O)CC1(C)C)=CC=CC=C(C)C=CC=C(C)C=CC1=C(C)CC(O)CC1(C)C (configuration not stated),inactive: 1.05
7,C[C@@H]1CN([C@H](C)CO)C(=O)CCCn2nncc2CO[C@@H]1CN(C)C(=O)Nc1ccc(C(F)(F)F)cc1,inactive: 0.966
8,O=C(C[C@@H]1CC[C@H]2[C@@H](COC[C@H](O)CN2C(=O)Nc2cc(Cl)cc(Cl)c2)O1)N1CCOCC1,inactive: 0.977
9,CO[C@H]1CN(C)C(=O)c2ccc(NC(=O)c3ccccc3)cc2OC[C@@H](C)N(C(=O)CN(C)C)C[C@H]1C,inactive: 1.01
10,C[C@@H]1CN([C@@H](C)CO)C(=O)c2c(c3ccccc3n2C)-c2ccccc2CO[C@@H]1CN(C)Cc1ccc(C(F)(F)F)cc1,inactive: 1.09
11,COc1ccc(S(=O)(=O)Nc2ccc3c(c2)C(=O)N([C@H](C)CO)C[C@@H](C)[C@H](CN(C)S(C)(=O)=O)O3)cc1,inactive: 1.01
12,C[C@H]1CCCCO[C@H](CN(C)C(=O)Nc2ccc3c(c2)OCO3)[C@@H](C)CN([C@@H](C)CO)C(=O)c2cc(NS(=O)(=O)c3cccs3)ccc2O1,inactive: 1.02
13,Cc1ccc(S(=O)(=O)N(C)C[C@H]2OCCCC[C@@H](C)Oc3ccc(NC(=O)C4CCCCC4)cc3C(=O)N([C@@H](C)CO)C[C@@H]2C)cc1,inactive: 1.02
14,C[C@H]1CN([C@@H](C)CO)C(=O)c2cccc(NC(=O)c3ccncc3)c2O[C@@H]1CN(C)Cc1ccc(Oc2ccccc2)cc1,inactive: 1.01
15,C[C@H]1CN([C@@H](C)CO)C(=O)Cc2cc(NS(=O)(=O)c3cccs3)ccc2O[C@@H]1CN(C)Cc1ccncc1,inactive: 1
16,CC1OC(Oc2c(-c3ccc(O)c(O)c3)oc3cc(O)cc(O)c3c2=O)C(O)C(O)C1O (configuration not stated),inactive: 1.14
17,O=C(C[C@@H]1C[C@@H]2c3cc(NC(=O)NC4CCCC4)ccc3O[C@@H]2[C@@H](CO)O1)NCCN1CCCCC1,inactive: 0.983
18,CN1C(=O)c2cc(NC(=O)C3CCCC3)ccc2OC[C@@H]2O[C@@H](CC(=O)NCCc3ccncc3)CC[C@H]21,inactive: 1.01
19,COc1ccc(S(=O)(=O)Nc2ccc3c(c2)C(=O)N([C@H](C)CO)C[C@H](C)[C@@H](CN(C)Cc2ccc(-c4ccccc4)cc2)O3)cc1,inactive: 0.995

row,SMILES,relative growth
1,Cc1cc(-c2ccc(N=Nc3ccc4c(S(=O)(=O)[O-])cc(S(=O)(=O)[O-])c(N)c4c3O)c(C)c2)ccc1N=Nc1ccc2c(S(=O)(=O)[O-])cc(S(=O)(=O)[O-])c(N)c2c1O.[Na+].[Na+].[Na+].[Na+],inactive: 2.26
2,COCC#Cc1ccc2c(c1)O[C@H](CN(C)Cc1ccc3c(c1)OCO3)[C@H](C)CN([C@@H](C)CO)S2(=O)=O,inactive: 1.03
3,COc1ccc(NC(=O)Nc2ccc3c(c2)C(=O)N([C@@H](C)CO)C[C@@H](C)[C@@H](CN(C)S(=O)(=O)c2ccc(OC)cc2)OCCCC[C@H](C)O3)cc1,inactive: 1.01
4,Cc1ccc(S(=O)(=O)Nc2ccc3c(c2)C(=O)N([C@@H](C)CO)C[C@@H](C)[C@@H](CN(C)C(=O)Nc2ccccc2)OCCCC[C@@H](C)O3)cc1,inactive: 1.01
5,NC(=O)CN1CCCCCC1=O,inactive: 1.02
6,CC(N)C12CC3CC(CC(C3)C1)C2.Cl (configuration not stated),inactive: 1.04
7,C[C@@H]1CN([C@H](C)CO)C(=O)c2cc(NC(=O)Nc3ccc(F)cc3)ccc2O[C@@H](C)CCCCO[C@@H]1CN(C)S(=O)(=O)c1ccc(F)cc1,inactive: 1.02
8,C[C@@H]1CCCCO[C@H](CN(C)C(=O)NC2CCCCC2)[C@@H](C)CN([C@@H](C)CO)C(=O)c2cc(NC(=O)C3CCCCC3)ccc2O1,inactive: 1.07
9,COc1ccc(S(=O)(=O)Nc2ccc3c(c2)C(=O)N([C@H](C)CO)C[C@H](C)[C@H](CN(C)C(=O)Nc2cccc4ccccc24)OCCCC[C@@H](C)O3)cc1,inactive: 0.986
10,CC(=O)N[C@@H]1[C@@H](OCCOc2ccc(Cl)cc2C)O[C@H](CO)[C@H](O)[C@@H]1O,inactive: 1.03
11,N#Cc1ccc(-c2ccccc2)nc1,inactive: 0.994
12,Cc1ccc(S(=O)(=O)Nc2ccc3c(c2)C(=O)N([C@H](C)CO)C[C@@H](C)[C@@H](CN(C)S(C)(=O)=O)OCCCC[C@@H](C)O3)cc1,inactive: 1.03
13,C[C@H](CO)N1C[C@H](C)[C@@H](CN(C)S(=O)(=O)c2ccc(F)cc2)Oc2ccc(NS(C)(=O)=O)cc2CC1=O,inactive: 0.973
14,C[C@H](CO)N1C[C@H](C)[C@@H](CN(C)Cc2ccc(C(F)(F)F)cc2)Oc2ccc(NC(=O)Cc3cn(C)c4ccccc34)cc2CC1=O,inactive: 1.01
15,CN1CCN(C(=O)C[C@H]2CC[C@H]3[C@@H](COC[C@H](O)CN3C(=O)C3CCCC3)O2)CC1,inactive: 1.01
16,Cc1noc(C)c1NC(=O)Nc1cccc2c1O[C@H](CN(C)Cc1ccc(Oc3ccccc3)cc1)[C@H](C)CN([C@H](C)CO)C2=O,inactive: 0.982
17,COc1ccc(NC(=O)Nc2ccc3c(c2)C(=O)N([C@H](C)CO)C[C@H](C)[C@@H](CN(C)Cc2ccc(Cl)c(Cl)c2)OCCCC[C@@H](C)O3)cc1,inactive: 1.03
18,C[C@H](CO)N1C[C@H](C)[C@@H](CN(C)Cc2ccc(-c3ccccc3)cc2)Oc2ccc(NC(=O)Cc3ccccc3)cc2C1=O,inactive: 0.967
19,O=C(C[C@H]1CC[C@H](NC(=O)c2cccnc2)[C@@H](CO)O1)NCCN1CCCCC1,inactive: 0.999
